Test results as given in article PMC9804489, “Phase 1/1b Studies of UCB0599, an Oral Inhibitor of α‐Synuclein Misfolding, Including a Randomized Study in Parkinson's Disease” (Movement Disorders, 2022).

Legend:
[1] = UP0077 phase 1b study: safety and tolerability in participants with PD
[2] = UP0030 phase 1 study: cerebrospinal fluid (CSF) concentration ~2 hours after administration
[3] = PK across all three phase 1/1b studies; format: in vivo; settings: human, plasma, oral; UP0030, UP0078, UP0077; read-out: Apparent elimination half‐life, range across all three studies
Text: (§1) A linear, time‐independent, PK profile was observed, and the PK of multiple doses of UCB0599 were predictable from single‐dose exposures.

[4] = UP0077 phase 1b study: plasma PK of UCB0599 and its metabolites in participants with PD; format: in vivo, human; settings: for AUC / Cmax / Tmax / half-life: human, plasma, oral; for AUC: read-out: AUC, geometric mean (CV%); for Cmax: read-out: C max, geometric mean (CV%); for Tmax: read-out: t max, median (range); for half-life: read-out: Half‐life, geometric mean (CV%) (converted)
Procedure: (§2) Statistical evaluations for all three studies were performed using SAS version 9.4 (SAS, Cary, NC, USA), and PK data were analyzed using Phoenix WinNonlin software (Certara, Princeton, NJ, USA). Continuous variables were summarized with number of participants, mean, standard deviation, median, minimum and maximum, and confidence intervals (CI) for the mean. Categorical variables were summarized with frequency counts and percentages.

[5] = parameters: method as in ref 11 = [11]; 11 Maguire R , Mercier J , Colson A , et al. OPR‐093: assessment of brain concentration of UCB0599, in development for Parkinson's disease (PD), in humans using PET . Eur J Neurol 2021; 28 ( S1 ): 61; settings: HPs, after 360 mg UCB0599; cited from earlier work
[6] = UCB0599 fraction unbound measured ex-vivo in plasma; format: in vitro ADME; settings: human; for fraction unbound at 1 day / fraction unbound at 28 day: plasma, oral, read-out: Fraction unbound, geometric mean (CV%)
Text: as §1

[7] = UP0078 phase 1 study: effect of food and ITZ on single-dose PK of UCB0599; format: in vivo, human
Procedure: as §2

[8] = UP0078 phase 1 food/ITZ study: safety and tolerability in healthy participants; settings: UP0078, UCB0599 N=22
[9] = UCB0599 180 mg/day, day 28, n=7
[10] = UCB0599 360 mg/day, day 28, n=13

## CCCC[C@H](Cc1c[nH]c2ccccc12)NC(=O)c1cnc(N2CCN(C)CC2)s1 [UCB0599]
[1]; UP0077, UCB0599 360 mg/day group (kidney injury)
  Serious TEAEs: 1 n
[1]; UP0077, all UCB0599 N=21
  Deaths: 0 n (%) […]
[1]; UP0077, incl. QTcF and plasma creatinine
  Treatment‐related patterns for laboratory findings, vital signs, or ECG findings: no consistent or clinically relevant treatment‐related patterns
[2]; MAD 180 mg/day, day 14
  Concentration in the CSF, GeoMean: 1260 pg/mL
[2]; MAD 180 mg/day, day 21
  Concentration in the CSF, GeoMean: 4880 pg/mL
[2]; SAD 90 mg, ~2 hours post-dose
  Concentration in the CSF, GeoMean: 2040 pg/mL
[2]; SAD 450 mg, ~2 hours post-dose
  Concentration in the CSF, GeoMean: 11,800 pg/mL
[3]
  half-life: 558 to 786 min
[4]; [9]
  t max, median (range): 2.0 (1.5–4.0) h
  half-life: 644 min
[4]; [10]
  t max, median (range): 2.0 (1.0–6.12) ^a h
  half-life: 785 min
[4]; 180 mg/day, UCB0599 180 mg/day (90 mg twice daily), day 1, AUC 0 to 12 hours, n=7
  AUC: 2230 ng·h/mL
[4]; 180 mg/day, UCB0599 180 mg/day, day 1, n=7
  Cmax: 417 ng/mL
[4]; 180 mg/day, UCB0599 180 mg/day, day 28, AUC for the dosing interval at steady state, n=7
  AUC: 3740 ng·h/mL
[4]; 180 mg/day, UCB0599 180 mg/day, day 28, n=7
  Cmax: 671 ng/mL
[4]; 360 mg/day, UCB0599 360 mg/day (180 mg twice daily), day 1, AUC 0 to 12 hours, n=14
  AUC: 3390 ng·h/mL
[4]; 360 mg/day, UCB0599 360 mg/day, day 1, n=14
  Cmax: 662 ng/mL
[4]; 360 mg/day, UCB0599 360 mg/day, day 28, AUC for the dosing interval at steady state, n=13
  AUC: 7650 ng·h/mL
[4]; 360 mg/day, UCB0599 360 mg/day, day 28, n=13
  Cmax: 1270 ng/mL
[4]; UCB0599 180 mg/day, day 1, n=7
  Tmax: 2 h
[4]; UCB0599 360 mg/day, day 1, n=14
  Tmax: 2 h
[5]
  Brain penetration (white and gray matter regions), PET: good brain penetration
[6]; UP0077, UCB0599 180 mg/day, day 1, n=7
  fraction unbound at 1 day: 0.011
[6]; UP0077, UCB0599 180 mg/day, day 28, n=7
  fraction unbound at 28 day: 0.012
[6]; UP0077, UCB0599 360 mg/day, day 1, n=13
  fraction unbound at 1 day: 0.01
[6]; UP0077, UCB0599 360 mg/day, day 28, n=10
  fraction unbound at 28 day: 0.01
[6]; measured ex‐vivo in plasma, constant between dose groups
  fraction unbound: ~0.011
[7]; 180 mg single dose, ITZ 200 mg once daily, 90% CI 262.1–296.3
  GeoLSM ratio UCB0599 + ITZ versus UCB0599 fasted for AUC(0–t): 278.7%
[7]; 180 mg single dose, 90% CI 90.79–120.2
  GeoLSM fed/fasted ratio for C max: 104.5%
[7]; 180 mg single dose, 90% CI 104.4–113.7
  GeoLSM fed/fasted ratio for AUC(0–t): 108.9%
[7]; 200 mg of ITZ (strong CYP3A4 inhibitor)
  Increase in UCB0599 plasma exposure on co‐administration of ITZ: more than twofold
[7]; Hodges–Lehmann estimate, 90% CI 0–1.0
  Median difference in t max between UCB0599 + ITZ and UCB0599 fasted: 30 min
[7]; Hodges–Lehmann estimate, 90% CI 1.0–2.0
  Median difference in t max between fed and fasted: 1.5 h
[7]; from ITZ interaction
  CYP3A4 substrate classification: moderately sensitive CYP3A4 substrate
[7]; standard high‐fat, high‐calorie meal, 180 mg
  Food effect on UCB0599 absorption: no meaningful food effect
[8]
  Deaths: 0 n (%) […]
  Discontinuations due to TEAEs: 0 n (%) […]
  Serious TEAEs: 0 n (%) […]
  Severe TEAEs: 0 n (%) […]
  TEAEs of special interest: 0 n (%) […]

Like-named read-outs stand apart in the source and are kept apart here. Marks after values point to notes of the source that are not given here.
